Laboratory results from publication PMC4336329 (PLoS ONE, 2015).
Hit rate of the full screen: of about 310,000 compounds, about 14,000 (4.5%) showed an effect of 50% or more. Effects have a minus sign here. The list shows a part of the results.

These compounds were tested against human ether-à-go-go-related gene (hERG) potassium channel (human, UniProt Q12809) (assay: primary screen, population patch clamp on CHO cells stably expressing hERG).
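Also: peak tail current of the secondary pulse compared with the same well before compound.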

Sequence of human ether-à-go-go-related gene (hERG) potassium channel (Q12809 whole entry, looked up): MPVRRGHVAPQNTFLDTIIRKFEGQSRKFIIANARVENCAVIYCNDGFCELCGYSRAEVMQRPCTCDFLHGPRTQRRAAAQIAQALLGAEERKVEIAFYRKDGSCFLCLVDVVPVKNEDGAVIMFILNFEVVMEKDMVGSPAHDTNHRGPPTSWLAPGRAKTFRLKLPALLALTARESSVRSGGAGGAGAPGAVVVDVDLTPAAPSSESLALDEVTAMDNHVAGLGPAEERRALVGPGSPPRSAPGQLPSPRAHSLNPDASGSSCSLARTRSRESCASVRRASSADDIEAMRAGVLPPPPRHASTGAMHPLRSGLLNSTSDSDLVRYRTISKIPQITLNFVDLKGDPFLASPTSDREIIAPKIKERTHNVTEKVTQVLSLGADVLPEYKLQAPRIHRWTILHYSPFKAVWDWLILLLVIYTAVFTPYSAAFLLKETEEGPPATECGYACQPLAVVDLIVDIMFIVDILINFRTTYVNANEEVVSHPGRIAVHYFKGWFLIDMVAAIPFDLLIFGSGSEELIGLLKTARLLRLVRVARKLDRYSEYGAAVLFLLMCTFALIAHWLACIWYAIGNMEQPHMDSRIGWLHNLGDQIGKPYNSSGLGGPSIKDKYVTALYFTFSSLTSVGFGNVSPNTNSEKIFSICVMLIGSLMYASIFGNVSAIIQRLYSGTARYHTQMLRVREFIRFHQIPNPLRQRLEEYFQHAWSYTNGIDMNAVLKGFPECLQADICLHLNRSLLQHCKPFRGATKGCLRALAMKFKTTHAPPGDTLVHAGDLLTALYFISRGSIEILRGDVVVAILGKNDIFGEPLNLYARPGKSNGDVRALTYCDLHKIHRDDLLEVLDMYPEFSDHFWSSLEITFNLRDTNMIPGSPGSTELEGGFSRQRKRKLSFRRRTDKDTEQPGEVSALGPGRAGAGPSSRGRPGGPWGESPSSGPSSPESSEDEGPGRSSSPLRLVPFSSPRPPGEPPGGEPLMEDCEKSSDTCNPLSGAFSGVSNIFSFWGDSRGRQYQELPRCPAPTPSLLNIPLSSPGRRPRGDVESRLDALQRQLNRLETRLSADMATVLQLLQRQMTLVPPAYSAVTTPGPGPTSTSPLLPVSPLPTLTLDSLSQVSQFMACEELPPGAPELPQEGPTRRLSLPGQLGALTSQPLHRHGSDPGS

Structure (SMILES) | hERG current change (%, negative = inhibition) at 10uM [%]
COc1cccc(/C=c2/s/c(=C(\C#N)C(=O)N3CCOCC3)n(-c3ccccc3)c2=O)c1 | 4.8
O=C(Nc1cccc(Cl)c1)c1ccc2c(c1)OCCO2 | -0.988
CCOc1ccc(N(CC(=O)NC2CCCCC2C)S(=O)(=O)c2c(C)noc2C)cc1 (stereo not drawn) | 22.8
Cc1ccc(NC(=O)CN2CCN(C(=O)C3CCCO3)CC2)c(C)c1 (stereo not drawn) | -35.5
CCN(CCn1cccn1)C(=O)c1ccc2nc(Cc3ccc(OC)cc3)oc2c1 | -1.32
O=C(CN(Cc1ccco1)C(=O)c1ccc(N2CCCC2=O)cc1)Nc1ccccc1C(F)(F)F | -46.3
Cc1cc(C(=O)CCC(=O)N(C)CC(=O)Nc2ccccc2Br)c(C)s1 | -5.42
C=CCc1ccccc1OCC(O)CN1CCN(C(=O)OCC)CC1.Cl (stereo not drawn) | -11.3
CNC(=O)c1cc2cc(Cc3ccccc3Cl)ccc2oc1=O | 1.75
O=S(=O)(Cc1ccc(Cl)cc1)N1CCCC1 | -7.31
Cc1ccc2cccc(OCc3ccc(Br)cc3)c2n1 | 8.51
CCCCn1c(O)c(N=NC(=O)c2ccncc2)c2cc(Br)ccc21 | -68.1
O=C(CS(=O)CC(=O)N(c1ccccc1)C(C(=O)NC1CCCCC1)c1ccco1)Nc1ccc(F)cc1 (stereo not drawn) | -1.48
N#CCCN(CCC#N)C(=O)c1ccc2c(c1)OCO2 | 5.31
Cc1cc(C)nc(SCC(=O)Nc2nccs2)n1 | 14.8
CCOC(=O)CSC1=C(C#N)C(=O)NC2(CCCCC2)S1 | 19
O=C(C1=C[C@H](c2ccc(C(F)(F)F)cc2)C[C@H](OCCCCO)O1)N1CCN(Cc2ccc3c(c2)OCO3)CC1 | -44.1
Cc1cc(/C=C2\SC(=S)N(C)C2=O)c(C)n1-c1ccc(O)cc1 | 25.3
Cc1csc2c(C#N)c(=O)c3c(n12)CCC3 | 8.6
COc1ccccc1N1C(=O)CC1(C#N)c1ccc(OCc2ccccc2)cc1 (stereo not drawn) | 7.52
COc1ccc(S(=O)(=O)NCCSC(C)(C)C)c(Cl)c1Cl | -19.3
O=C(NCc1cccnc1)C1CCCN(S(=O)(=O)c2ccc(Br)cc2)C1 (stereo not drawn) | -41.6

Structure (SMILES) | hERG current change (%, negative = inhibition) at 10uM [%]
COc1ccccc1C(=O)N/C(=C/c1ccc(Br)cc1)C(=O)NCCCn1ccnc1 | -87
O=C(O)C(=O)Cc1c[nH]c2ccccc12 | 19.2
O=C(NCc1ccccc1Cl)C1CCN(S(=O)(=O)N2CCCCC2)CC1 | 1.33
CCn1nc(C)cc1C(=O)N1CCCC(CCC(=O)NCc2ccccc2F)C1 (stereo not drawn) | 26.4
CN(c1ccccc1)S(=O)(=O)c1cc(C(=O)OCC(=O)N2CCN(C(=O)c3ccco3)CC2)ccc1Cl | -68.3
CCOC(=O)N1CCN(S(=O)(=O)c2cc(Cl)ccc2Cl)CC1 | -2.29
Cc1cccc(C(=O)N(c2ccccn2)C(C)c2ccco2)c1 (stereo not drawn) | 3.03
CCOCCOC(=O)c1ccc(NC(=O)c2cc(OC)c(OC)c(OC)c2Br)cc1 | -6.1
Cn1c(COc2ccc(Cl)cc2)nnc1SCC(=O)Nc1ccc2c(c1)CCC2 | 15
COc1ccc(S(=O)(=O)NCC2CCCN(Cc3ccc(O)cc3)C2)cc1 (stereo not drawn) | -59.2
CC(/C=N/NC(=O)c1nnn(-c2nonc2N)c1C(C)C)=C\c1ccccc1 | 14.8
CCCN1CCC(=O)N(CCSc2ccc(NC(C)=O)cc2)CC1 | 6.8
CC(C)C[C@H]1C(=O)N2CCC[C@H]2[C@]2(O)O[C@](NC(=O)[C@@H]3C=C4c5cccc6[nH]cc(c56)C[C@H]4N(C)C3)(C(C)C)C(=O)N12 | -12.6
COCCOC(=O)c1nccnc1C(=O)Nc1ccc(S(=O)(=O)N2CCOCC2)cc1 | -0.241
O=C(Nc1ccc(Cl)cn1)C1CC1 | -10.7
CCN1C(=O)N[C@@H](CCc2ccccc2)[C@H](C(C)=O)[C@H]1C | -4.7
CCc1cc2ccc(OC)cc2nc1SCC(=O)Nc1cc(C)on1 | -3.99
O=C(COc1cccc2cccnc12)N/N=C1\SCC(=O)N1CCc1ccccc1 | -41.5
Cc1ccc(C)c(OCc2cc(C(=O)N3CCN(c4ccccc4)CC3)no2)c1 | -31.4
Cn1c(CSCc2ccc(Cl)cc2)nnc1SCC(=O)Nc1nccs1 | -0.617
CC(C)c1ccc(NC2CCCN(C(=O)c3cccc4nccnc34)C2)cc1 (stereo not drawn) | 3.92
CCOC(=O)c1c(NC(=O)c2ccccc2)sc2c1CCc1ccccc1-2 | 17.2

Structure (SMILES) | hERG current change (%, negative = inhibition) at 10uM [%]
Cc1ccc(F)cc1NC(=O)COC(=O)c1ccc2ncsc2c1 | -5.08
Brc1ccc(C2=Nc3cccc4cccc(c34)N2)o1 | 16.7
COc1ccc(S(=O)(=O)N2CCCCCC2)cc1C(=O)OCC(=O)NC(N)=O | -9.58
Cc1cc(C(F)(F)F)nc(SCC(=O)NC2CCCCC2)n1 | -10
COC(=O)CCC(=O)NS(=O)(=O)c1ccc(N=NN2CCOCC2)cc1 | 6.75
COc1ccc(S(=O)(=O)NCC(c2ccc(F)cc2)N2CCN(C)CC2)cc1 (stereo not drawn) | -36.4
CSC1=N/C(=C\c2ccc(C)o2)C(=O)S1 | -1.31
O=C(C1CCN(S(=O)(=O)c2ccc(Cl)cc2)CC1)N1CCCCCCC1 | -16.1
O=C1CC(NC2CCN(C(=O)c3cccc(F)c3)CC2)C(=O)N1 (stereo not drawn) | 22.3
O=C(c1ccc(NC(=O)C2(c3ccccc3)CCOCC2)cc1)N1CCOCC1 | 9.8
Cc1ccc(NC(=O)N2CCCC2C(=O)Nc2c(C)cc(C)cc2C)cc1 (stereo not drawn) | -1.7
Cc1cc(-n2c(C)cc(C(=O)CCl)c2C)no1 | -13.3
Cc1nn(C(C)C(=O)N/N=C/c2ccc(N(C)C)cc2)c(C)c1[N+](=O)[O-] (stereo not drawn) | -13.4
CCOC(=O)c1sc(NC(=O)Cc2c(F)cccc2Cl)nc1C | 5.72
Cc1ccc(C(=O)N/N=C/C2=Cc3ccccc3OC2C)cc1 (stereo not drawn) | -10.4
COc1ccc(CN2C(=O)c3cccnc3C2=O)cc1S(=O)(=O)N1CCCCC1C (stereo not drawn) | -2.41
C=CCn1c(N)c(C(=O)N2CCOCC2)sc1=S | -0.64
Cc1ccc(C(=O)CSc2nnc(-c3cccnc3)n2N)cc1 | -15.2
COc1ccc(CCn2c(NCCCN3CCOCC3)nc3c2c(=O)[nH]c(=O)n3C)cc1 | -4.38
O=C(NC(Cc1ccccc1)C(=O)O)OCc1ccccc1 (stereo not drawn) | 2.83
Cc1cccc(C(=O)NCCN(C)C)c1.Cl | 8.43
COc1ccc(-n2c(O)c(Cc3ccccc3)c(=O)n3nc(-c4ccccc4)c(=O)cc23)cc1 | 5.18

Structure (SMILES) | hERG current change (%, negative = inhibition) at 10uM [%]
C=CCn1c(CNS(=O)(=O)c2ccc(Br)cc2)nnc1SC | 0.256
Cc1nc2cc(NC(=O)Nc3cccc([N+](=O)[O-])c3)ccc2n1C | 6.59
N#CC1=C(N)OC2=C(CC/C2=C\c2ccccc2)C1c1ccccc1 (stereo not drawn) | 13.9
Cc1ccnc(NC(=O)CCCOc2cc(=O)n(C)c3ccccc23)c1 | -1.26
CCOC(=O)N1CCN(S(=O)(=O)c2cc([N+](=O)[O-])c(C)cc2C)CC1 | -40.5
O=C(Nc1nsc(-c2ccccc2)n1)c1ccc(F)cc1 | -24.6
Cc1ccc(S(=O)(=O)N2CCN=C2SCc2ccccc2)cc1 | -5.52
O=C(NC1CCCCC1)C1CCCN1C(=O)NCc1ccccc1 (stereo not drawn) | -2.71
CC[n+]1c(/C=C2\C=C(C)CC(C)C2)sc2ccccc21.[I-] (stereo not drawn) | 6.92
Cc1cc(C)cc(N2C(=O)c3nccnc3C2=O)c1 | 4.26
CC(C)N(C(=O)CSc1nnnn1C1CCCC1)C(C)C | -12.9
O=C(Nc1ccc(C(=O)N2CCN(c3ccccc3F)CC2)cc1)C1=CSCCO1 | -50.3
O=C(c1ccccc1Cl)N(Cc1ccc(Br)cc1)N1C(=O)CCCC1=O | 9.41
O=C(c1ccco1)N1CCN(CC(=O)N(C2CCCCC2)C2CCS(=O)(=O)C2)CC1 (stereo not drawn) | 16.2
Cc1cc(C)nc(SCC(=O)OCC(=O)N(C)c2c(N)n(Cc3ccccc3)c(=O)[nH]c2=O)n1 | 12.4
O=C(Cc1cccs1)N/N=C/c1ccco1 | 9.04
Nc1cc(C(=O)N2CCN(c3ccc([N+](=O)[O-])cc3)CC2)ccc1N1CC2CC(C1)c1cccc(=O)n1C2 (stereo not drawn) | -35.3
Cc1cc2c(cc1C)N(Cc1ccccc1)C1=NCCCN12.Cl | -72.3
Cn1cnc(NCc2ccccc2)c1[N+](=O)[O-] | 10.1
O=C(N/N=C\c1ccc(Sc2ccccn2)o1)c1cccc(Br)c1 | -4.65
Cc1nn(C(C)C)c(C)c1CN1CCN(Cc2ccsc2)C(CCO)C1 (stereo not drawn) | 0.518
